# From a collection of fitness landscapes (doi:10.1126/science.1257360)
# The other results are listed elsewhere or left out.
# B1: PhoQ; a variant is named by its letters at X, in order, P23837 (parent)
# chain: MKKLLRLFFPLSLRVRFLLATAAVVLVLSLAYGMVALIGYSVSFDKTTFRLLRGESNLFYTLAKWENNKLHVELPENIDKQSPTMTLIYDENGQLLWAQRDVPWLMKMIQPDWLKSNGFHEIEADVNDTSLLLSGDHSIQQQLQEVREDDDDAEMTHSVAVNVYPATSRMPKLTIVVVDTIPVELKSSYMVWSWFIYVLSANLLLVIPLLWVAAWWSLRPIEALAKEVRELEEHNRELLNPATTRELTSLVRNLNRLLKSERERYDKYRTTLTDLTHSLKTPLXXLQXXLRSLRSEKMSVSDAEPVMLEQISRISQQIGYYLHRASMRGGTLLSRELHPVAPLLDNLTSALNKVYQRKGVNISLDISPEISFVGEQNDFVEVMGNVLDNACKYCLEFVEISARQTDEHLYIVVEDDGPGIPLSKREVIFDRGQRVDTLRPGQGVGLAVAREITEQYEGKIVAGESMLGGARMEVIFGRQHSAPKDE
# Variants of: B1
# Experiment: enrichment ratio after two sorts for PhoP signalling (ratio (wild type AVST 3.29)); higher = more functional
# Conditions: with PhoP (E. coli)
row,Variant,enrichment ratio
1,MRTA,≤ 0.25
2,SIER,≤ 0.25
3,KEPN,≤ 0.25
4,IPVM,≤ 0.25
5,LDDM,≤ 0.25
6,DRGT,≤ 0.25
7,YSFK,≤ 0.25
8,DKST,≤ 0.25
9,ASPV,0.706
10,MRLW,≤ 0.25
11,DMMD,≤ 0.25
12,KHCS,≤ 0.25
13,FMCE,≤ 0.25
14,TTMH,5.31
15,AINH,≤ 0.25
16,PFNK,≤ 0.25
17,FPIR,≤ 0.25
18,AGHE,≤ 0.25
19,WKNV,≤ 0.25
20,MRWN,≤ 0.25
21,PNQP,≤ 0.25
22,WFTT,≤ 0.25
23,GYTM,≤ 0.25
24,KNVS,≤ 0.25

row,Variant,enrichment ratio
1,RYFV,≤ 0.25
2,WHKQ,≤ 0.25
3,QKGL,≤ 0.25
4,DSGL,≤ 0.25
5,LEVA,≤ 0.25
6,QGDT,≤ 0.25
7,YNMQ,≤ 0.25
8,PETV,≤ 0.25
9,RYKQ,≤ 0.25
10,KPIT,≤ 0.25
11,SNCP,≤ 0.25
12,IWFL,≤ 0.25
13,PCGF,≤ 0.25
14,SFWR,≤ 0.25
15,RYGS,≤ 0.25
16,NKFI,≤ 0.25
17,QYKA,≤ 0.25
18,DSNM,≤ 0.25
19,YDHR,≤ 0.25
20,DQDQ,≤ 0.25
21,GEDS,≤ 0.25
22,KHEY,≤ 0.25
23,IEGD,≤ 0.25
24,HNPA,≤ 0.25

row,Variant,enrichment ratio
1,FADI,≤ 0.25
2,HERP,≤ 0.25
3,SYGE,≤ 0.25
4,IMFG,≤ 0.25
5,SWMW,≤ 0.25
6,GDSG,≤ 0.25
7,DVPV,≤ 0.25
8,DFCT,≤ 0.25
9,EAVF,≤ 0.25
10,PWVD,≤ 0.25
11,YPFI,≤ 0.25
12,IIVT,≤ 0.25
13,TSNE,8.75
14,SWMG,≤ 0.25
15,AHMP,≤ 0.25
16,KMKI,≤ 0.25
17,YFWR,≤ 0.25
18,SFTE,≤ 0.25
19,NDYV,≤ 0.25
20,TMFI,≤ 0.25
21,PLPK,≤ 0.25
22,YFPD,≤ 0.25
23,MICQ,≤ 0.25
24,TMEK,≤ 0.25

row,Variant,enrichment ratio
1,KSTH,≤ 0.25
2,PDPA,≤ 0.25
3,TMIH,≤ 0.25
4,AVMY,1.69
5,FLKT,≤ 0.25
6,PIEF,≤ 0.25
7,NNNY,≤ 0.25
8,QYFV,≤ 0.25
9,KEGI,≤ 0.25
10,ELCP,≤ 0.25
11,ARTD,≤ 0.25
12,PKLC,≤ 0.25
13,RPYT,≤ 0.25
14,VKDY,≤ 0.25
15,PRCL,≤ 0.25
16,QQCL,≤ 0.25
17,VLCT,≤ 0.25
18,PVMP,≤ 0.25
19,TMCD,3.1
20,WVQG,≤ 0.25
21,IEGK,≤ 0.25
22,SMVR,2.05
23,YAEE,≤ 0.25
24,TRQF,≤ 0.25

row,Variant,enrichment ratio
1,VTWF,≤ 0.25
2,MQSD,≤ 0.25
3,GHFK,≤ 0.25
4,YYVW,≤ 0.25
5,WDEC,≤ 0.25
6,YVLV,≤ 0.25
7,DMNP,≤ 0.25
8,NRSF,≤ 0.25
9,THPH,≤ 0.25
10,GYNI,≤ 0.25
11,TQTQ,4.86
12,EFTW,≤ 0.25
13,TVEM,≤ 0.25
14,DWSS,≤ 0.25
15,MKII,≤ 0.25
16,KLTN,≤ 0.25
17,RWPV,≤ 0.25
18,HCPF,≤ 0.25
19,LKKM,≤ 0.25
20,YNNQ,≤ 0.25
21,LMTG,≤ 0.25
22,IFVQ,≤ 0.25
23,QSVD,≤ 0.25
24,FTSW,≤ 0.25

row,Variant,enrichment ratio
1,ASLS,10.2
2,SKKS,≤ 0.25
3,SARM,≤ 0.25
4,DIPQ,≤ 0.25
5,FFVT,≤ 0.25
6,GSAK,1.55
7,PMSP,≤ 0.25
8,GHPI,≤ 0.25
9,LTIG,≤ 0.25
10,QVYY,≤ 0.25
11,NNWL,≤ 0.25
12,TESD,1.4
13,VERV,≤ 0.25
14,DLVI,≤ 0.25
15,HMPC,≤ 0.25
16,MPHH,≤ 0.25
17,HQSN,≤ 0.25
18,THSM,7.82
19,EEAV,≤ 0.25
20,FRIG,≤ 0.25
21,LGLY,≤ 0.25
22,AQVR,≤ 0.25
23,PQSM,≤ 0.25
24,IIRP,≤ 0.25

row,Variant,enrichment ratio
1,GFFW,≤ 0.25
2,FHKA,≤ 0.25
3,QGRT,≤ 0.25
4,TFNK,≤ 0.25
5,HPTY,≤ 0.25
6,VCNW,≤ 0.25
7,FMQK,≤ 0.25
8,PWAH,≤ 0.25
9,FMFI,≤ 0.25
10,FHVN,≤ 0.25
11,AEDF,≤ 0.25
12,WYWR,≤ 0.25
13,YCYR,≤ 0.25
14,LKWT,≤ 0.25
15,TCDF,≤ 0.25
16,TSAY,11.6
17,KISC,≤ 0.25
18,ATGL,6.2
19,EFTQ,≤ 0.25
20,LIEM,≤ 0.25
21,NLEH,≤ 0.25
22,HNGR,≤ 0.25
23,QRMH,≤ 0.25
24,FWTG,≤ 0.25

row,Variant,enrichment ratio
1,ESRR,≤ 0.25
2,KYRG,≤ 0.25
3,EYIW,≤ 0.25
4,HQGA,≤ 0.25
5,PVTV,≤ 0.25
6,MDHR,≤ 0.25
7,PDMI,≤ 0.25
8,PMSI,≤ 0.25
9,YSRY,≤ 0.25
10,PRYP,≤ 0.25
11,LLDE,≤ 0.25
12,PNFL,≤ 0.25
13,YAQT,≤ 0.25
14,WRWH,≤ 0.25
15,HTCH,≤ 0.25
16,PSKW,≤ 0.25
17,DAAP,≤ 0.25
18,QMSD,≤ 0.25
19,QGDM,27.5
20,HKAI,≤ 0.25
21,FDGR,≤ 0.25
22,EMRF,≤ 0.25
23,SCGH,6.81
24,MDMI,6.22

row,Variant,enrichment ratio
1,WMCL,≤ 0.25
2,VTMG,3.95
3,WRHI,≤ 0.25
4,SHMV,≤ 0.25
5,GHRG,≤ 0.25
6,YMDD,≤ 0.25
7,NEYS,≤ 0.25
8,PVNC,≤ 0.25
9,WGSK,≤ 0.25
10,LFCT,≤ 0.25
11,IISY,1.46
12,SLYT,≤ 0.25
13,GRWN,≤ 0.25
14,GEPD,≤ 0.25
15,FANF,≤ 0.25
16,MIKR,≤ 0.25
17,ALYD,≤ 0.25
18,TVQH,4.75
19,EWLC,≤ 0.25
20,RMHN,≤ 0.25
21,PFMD,≤ 0.25
22,QRQC,≤ 0.25
23,KVDH,≤ 0.25
24,PRSY,≤ 0.25

row,Variant,enrichment ratio
1,WMTY,≤ 0.25
2,HAHK,≤ 0.25
3,ETMV,≤ 0.25
4,LKHM,≤ 0.25
5,QRCA,≤ 0.25
6,NHVG,≤ 0.25
7,GKTD,≤ 0.25
8,DHIS,≤ 0.25
9,NCWL,≤ 0.25
10,PDGC,≤ 0.25
11,GKAT,≤ 0.25
12,YNAI,≤ 0.25
13,WLAC,≤ 0.25
14,VRGY,≤ 0.25
15,EIGM,≤ 0.25
16,YMVV,≤ 0.25
17,IRCC,≤ 0.25
18,SMWV,≤ 0.25
19,WLVC,≤ 0.25
20,VHAR,≤ 0.25
21,SYMR,≤ 0.25
22,KHTC,≤ 0.25
23,CWYY,≤ 0.25
24,QMDF,≤ 0.25

row,Variant,enrichment ratio
1,RWSK,≤ 0.25
2,NDTQ,≤ 0.25
3,NPRT,≤ 0.25
4,ILFH,≤ 0.25
5,QDMG,≤ 0.25
6,MRDN,≤ 0.25
7,QSYT,8.7
8,KRYV,≤ 0.25
9,PIDQ,≤ 0.25
10,KGRL,≤ 0.25
11,AFHN,≤ 0.25
12,WNWY,≤ 0.25
13,MQYN,8.1
14,TAPH,≤ 0.25
15,HTYD,≤ 0.25
16,ENYE,≤ 0.25
17,GGIT,≤ 0.25
18,YDFR,≤ 0.25
19,FYSK,≤ 0.25
20,PMQL,≤ 0.25
21,FMLY,≤ 0.25
22,RRLQ,≤ 0.25
23,FSVM,8.94
24,HHAE,≤ 0.25

row,Variant,enrichment ratio
1,KGVF,≤ 0.25
2,VWME,≤ 0.25
3,QMGE,96.1
4,LETH,≤ 0.25
5,MHTL,≤ 0.25
6,EGSD,≤ 0.25
7,QREH,≤ 0.25
8,WICR,≤ 0.25
9,RVPW,≤ 0.25
10,PTTG,≤ 0.25
11,PTIR,≤ 0.25
12,RTIR,≤ 0.25
13,TVKR,≤ 0.25
14,GPYG,≤ 0.25
15,IQGG,≤ 0.25
16,AFYW,≤ 0.25
17,EGSV,≤ 0.25
18,WDYW,≤ 0.25
19,LVFN,≤ 0.25
20,LMHH,≤ 0.25
21,RPWS,≤ 0.25
22,FKRN,≤ 0.25
23,PCQF,≤ 0.25
24,GDPG,≤ 0.25

row,Variant,enrichment ratio
1,HYDP,0.484
2,PGRF,≤ 0.25
3,QTEH,≤ 0.25
4,EDLD,≤ 0.25
5,FSIC,≤ 0.25
6,SWIM,≤ 0.25
7,FPIY,≤ 0.25
8,IIGF,≤ 0.25
9,SGDK,≤ 0.25
10,RDFK,≤ 0.25
11,DMTG,≤ 0.25
12,DVMK,≤ 0.25
13,LLEG,≤ 0.25
14,KQAG,≤ 0.25
15,NNHH,≤ 0.25
16,YNFR,≤ 0.25
17,SYNL,≤ 0.25
18,WFAW,≤ 0.25
